Hit rate of the full screen: of about 340,000 compounds, about 6,900 (2%) were called active. Cut-off read from the data, not from the text of the source: active = inhibition above about 30%; inactive = below that, where a call was filed. The entries are a selection whose mix differs from that of the whole data set. Entries without a call were filed so in the source.
Target: D(2) dopamine receptor (Homo sapiens) (UniProt P14416)
Assay: HTS Assay for Allosteric Antagonists of the Human D2 Dopamine Receptor: Primary Screen for Antagonists; note: 0% is about no effect
Settings: HEK293 TREx D2 cells, calcium flux, dopamine EC80; at 10 µM; stronger effect = higher value
How it was run: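 Antagonism is scored as inhibition of an EC80 dopamine-evoked calcium signal in a force-coupled, tetracycline-inducible HEK293 T-REx D2 line, with compound present 180 s before agonist.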

Sequence of UniProt P14416 (P14416 whole entry, looked up): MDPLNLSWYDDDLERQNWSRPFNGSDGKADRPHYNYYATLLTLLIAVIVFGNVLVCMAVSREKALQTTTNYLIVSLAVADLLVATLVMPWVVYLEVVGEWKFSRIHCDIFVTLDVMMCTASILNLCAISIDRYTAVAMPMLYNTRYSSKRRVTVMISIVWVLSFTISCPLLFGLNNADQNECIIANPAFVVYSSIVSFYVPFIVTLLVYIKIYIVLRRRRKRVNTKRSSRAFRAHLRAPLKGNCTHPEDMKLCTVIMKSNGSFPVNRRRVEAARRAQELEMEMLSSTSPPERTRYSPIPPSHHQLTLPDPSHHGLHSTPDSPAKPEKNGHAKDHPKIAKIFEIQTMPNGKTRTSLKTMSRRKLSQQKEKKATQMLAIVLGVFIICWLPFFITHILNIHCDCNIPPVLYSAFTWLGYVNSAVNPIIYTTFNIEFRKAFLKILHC

For `Cc1ccc2nc(N3C(=O)C(O)=C(C(=O)c4ccco4)C3c3ccc(C)o3)sc2c1` (stereo unspecified), the inhibition was active: 31%.
With `O=C(Nc1ccc(F)cc1)C(c1ccccc1)N1CCN(S(=O)(=O)c2ccc3ccccc3c2)CC1` (stereo unspecified) the inhibition was active: 36.9%.
With `Cc1cc(-n2c(C)cc(C(=O)COc3ccc(F)c(F)c3)c2C)no1` the inhibition was active: 30%.
For `CC(=O)c1ccc(N2CCN(C(=O)C3CCCN(S(=O)(=O)c4cnc[nH]4)C3)CC2)cc1` (stereo unspecified), the inhibition was active: 32.4%.
In the case of `C[C@H]1CCC[C@]2(O[C@@H](CCO)C[C@H](O)[C@H]2O)O1`, the inhibition is reported as active: 30.6%.
With `COc1cc(OC)c(OC)cc1CN1CCN(c2ccccc2OC)CC1` the inhibition was active: 70.1%.
In the case of `O=c1[nH]cnc2sc3c(c12)CN(Cc1ccccc1)CC3`, the inhibition is reported as active: 73.8%.
`CCC(=O)Nc1cccc(-c2csc(-c3ccccc3)n2)c1` was tested, and the inhibition was active: 37.7%.
With `COc1ccc(Nc2nc(N)nc(CN3CCN(c4ccccn4)CC3)n2)cc1` the inhibition was active: 72.7%.

Point of comparison: `CC(C)Oc1ccc(CNS(=O)(=O)c2cnc(N)nc2)cc1`, inhibition 11.5%. Against it:
- Cc1ccc(NC(=O)/C=C/c2ccccc2)c(Br)c1 — lower, 8.88%
- COc1ccc(-c2nc3scc(CCNS(=O)(=O)c4c(C)noc4C)n3n2)cc1 — higher, 28.2%
- Cc1ccc(C)c(CN2C(=O)c3ccccc3S(=O)(=O)c3ccc(C(=O)Nc4ccccc4C(F)(F)F)cc32)c1 — lower, 7.68%
- CN1CCN(C(=O)C(=O)Nc2c3c(nn2-c2ccc(F)cc2)CSC3)CC1 — lower, -17.6%
- Cc1cc(C)c2oc(C(=O)Nc3sc4c(c3C(=O)NCc3ccco3)CCC4)cc(=O)c2c1 — lower, 7.53%
- COC(=O)c1ccc(NC(=O)c2c(NCc3ccc(C)o3)sc3c2CCCC3)cc1 — lower, 2.87%
- CCn1c(C(=O)NCc2cccc(Br)c2)cc2oc3ccccc3c21 — higher, 11.9%
- COc1cc(-c2noc(-c3cc4cc(F)ccc4oc3=O)n2)cc(OC)c1OC — lower, -1.31%
- CCc1nnc(NC(=O)c2cc(=O)c3cc(C)c(C)cc3o2)s1 — higher, 13.9%
- CN1C(=O)C2(c3ccccc31)N(c1ccccc1)C(=O)CS2(=O)=O (stereo unspecified) — lower, 1.76%
- O=C(Cn1c(=O)n(Cc2ccc3c(c2)OCO3)c(=O)c2oc3ccccc3c21)Nc1ccccc1 — lower, -2.39%
- CSc1ccc(CCNC(=O)C2CCN(c3nc4ccccc4nc3C(F)(F)F)CC2)cc1 — lower, 4.14%
- Cc1ccccc1CNC(=O)C1CCN(c2nnc(C)c3c(C)n(-c4ccccc4)nc23)CC1 — lower, -17.1%
- CCc1ccc(-c2nc3ccc(Br)cc3c(C(=O)O)c2C)s1 — lower, 4.51%
- Cc1c(Cl)cccc1NC(=O)CCn1c(=O)c2cccn2c2ccccc21 — lower, 2.95%
- CC(CNC(=O)C1CCN(Cc2cc3ccccc3n2Cc2ccccc2)CC1)c1ccccc1 (stereo unspecified) — higher, 14.8%
- CCOc1ccccc1NC(=O)CSc1nccn1-c1ccc(Cl)cc1 — lower, -4.52%
- COc1ccc(C(=O)c2cn(Cc3ccc(C)cc3)c3cc4c(cc3c2=O)OCO4)cc1 — lower, 6.72%
- O=C(CSc1cn(CC(=O)N2CCCCC2)c2ccccc12)Nc1ccccc1F — lower, -5.25%
- COc1ccccc1-c1noc(CSc2nc3ccc(C)cc3[nH]2)n1 — lower, -9.25%
- COc1cc(NC(=O)CCS(=O)(=O)c2nc(-c3cccs3)cc(C(F)(F)F)n2)cc(OC)c1OC — lower, -7.53%
- COc1cc(NC(=O)c2nnn(CC(=O)Nc3ccccc3)c2N)cc(OC)c1 — lower, 2.43%
- Cc1ccc2nc(-c3ccc(NC(=O)COc4c(C)ccc(C)c4C)cc3)sc2c1 — lower, -11.1%
- O=C(CN1C(=O)C2(SCC(=O)N2c2ccccc2)c2ccccc21)NCc1ccccc1Cl (stereo unspecified) — lower, -1.45%
- O=C(NC1CCCCC1)c1ccc2c(c1)N(Cc1ccccc1)C(=O)c1ccccc1S2 — lower, -25.5%
- CCCCNc1nc(Oc2ccc(=O)n(C)n2)nc(N(C)C)n1 — lower, -12.2%
- CCCc1nn2c(=O)cc(COC(=O)c3ccc(NC(=O)C(C)Oc4ccccc4)cc3)nc2s1 (stereo unspecified) — lower, -3.61%
- CSc1nc(-c2ccc(F)cc2)nc2c1Cc1c(CO)cnc(C)c1O2 — lower, 7.68%
- CCOc1ccc(CCNC(=O)Cn2nnc(-c3ccc(OC)c(OC)c3)n2)cc1OCC — lower, 6.16%
- CCOc1cc(CNCCSc2nnnn2-c2ccccc2)cc(Cl)c1OC — lower, 0.0972%
- Cc1cc(C)cc(NC(=O)Cn2c(=O)oc3cc(S(=O)(=O)N4CCCC4)ccc32)c1 — lower, -4%
- CCCC12CN3CC(CCC)(CN(C1)C3c1c[nH]c3ccccc13)C2=O (stereo unspecified) — lower, 7.18%
- Cc1ccc(-c2nnc(SCC(=O)N3CCc4ccccc43)o2)cc1 — lower, 7.84%
- Cc1ccc(CNC(=O)c2ccc3c(c2)N(Cc2ccccc2F)C(=O)c2ccccc2S3(=O)=O)cc1 — higher, 23.6%
- O=S(=O)(c1ccc2ccccc2c1)n1nc(-c2ccco2)nc1NCc1cccc(Cl)c1 — lower, 6.54%
- COc1ccc(S(=O)(=O)c2cn(C)c3cc(N4CCCC4)c(F)cc3c2=O)cc1 — lower, 8.23%
- COc1cccc(CNC(=O)c2cnc(N3CCCC3)nc2C)c1 — lower, -4.85%
- COC(=O)CNC(=O)C(Cc1ccccc1)NS(=O)(=O)c1ccc2c(c1)c(=O)n(C)c(=O)n2C (stereo unspecified) — lower, 9.69%
- COCCN1Cc2cccc(C(=O)Nc3ccc(C)cc3C)c2C1=O — lower, 1.74%
- Cc1c(Cl)cccc1NC(=O)c1cnc2sc(N3CCCC3)nn2c1=O — lower, -1.08%
- Cc1ccc(NC(=O)Cn2c(=O)n(CCCCCC(=O)NCc3ccc(F)cc3)c(=O)c3sccc32)c(C)c1 — lower, -1.91%
- CCN(C(=O)C1CCN(S(=O)(=O)c2ccc3c(c2)CCCN3C(=O)C2CCC2)CC1)c1cccc(C)c1 — lower, -7.3%
- Cc1cc2c(cc1S(=O)(=O)N1CCC(C)CC1)OCC(=O)N2 — lower, -15.9%
- O=C(COc1ccccc1)Nc1ccc(S(=O)(=O)N(Cc2ccccc2)c2ccccc2)cc1 — lower, -12.7%
- COC(=O)c1sc2cccc(F)c2c1S(=O)(=O)Nc1cc(OC)cc(OC)c1 — higher, 15.4%
- O=C(CSc1nc2ccccc2c(=O)n1CCC(=O)NC1CCCCC1)Nc1ccccc1Cl — lower, 2.71%
- Cc1nn(CCCC(=O)NCc2ccccc2)c(=O)c2nn(-c3ccccc3)c(C)c12 — lower, -7.43%
- CCC(=O)N1CCc2cc(S(=O)(=O)NCCC(=O)Nc3ccc(OC)c(Cl)c3)ccc21 — lower, 1.31%
- CC(C)c1nnc(N2C(=O)c3oc4ccccc4c(=O)c3C2c2cccc(O)c2)s1 (stereo unspecified) — lower, -0.477%
- O=C(CSc1cn(CC(=O)N2CCCCCC2)c2ccccc12)Nc1ccccc1F — higher, 15.1%
- CCc1nnc2c(NCc3ccccc3OC)nc3ccccc3n12 — lower, -2.09%
